# Experimental data reported in PubChem BioAssay AID485294 (National Center for Advancing Translational Sciences (NCATS), 2010).
# Hit rate of the full screen: of about 370,000 compounds, about 150 (0.041%) were called active. Inconclusive means that the source gave no clear call. Such entries were picked first, then a sample of the others. Calls follow the shape of the dose curve; as a rule, active = well fitted inhibition curve with a large enough effect; inconclusive = small, poorly fitted or top-dose-only effect; inactive = flat fitted curve, though single readings scatter. No potency is given beside an inconclusive call; the fits are too rough.
# Molecular target: Beta-lactamase (Escherichia coli (strain K12)) (UniProt P00811)
# Assay: qHTS Inhibitors of AmpC Beta-Lactamase (assay with detergent); also: nearly all actives have a fitted effect of over 25% in size
# Details: AmpC hydrolysis of nitrocefin, absorbance 480 nm, 0.01% Triton; series mostly up to 114 µM
# How it was run: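 20 mM phosphate pH 7.0 + 0.01% (detergent screen) or 0.0001% Triton X-100; 5.3 nM AmpC reagent; cpd preinc 15 min RT; nitrocefin (800 uM stock) to start; A480 q20 s × 4 min; Activity was normalised to no-enzyme and no-compound control wells.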
# Potency is read from the fitted curve at half-maximal effect; tags tell the direction and shape of the fitted curve.
# Sequence of UniProt P00811 (P00811 whole entry, looked up): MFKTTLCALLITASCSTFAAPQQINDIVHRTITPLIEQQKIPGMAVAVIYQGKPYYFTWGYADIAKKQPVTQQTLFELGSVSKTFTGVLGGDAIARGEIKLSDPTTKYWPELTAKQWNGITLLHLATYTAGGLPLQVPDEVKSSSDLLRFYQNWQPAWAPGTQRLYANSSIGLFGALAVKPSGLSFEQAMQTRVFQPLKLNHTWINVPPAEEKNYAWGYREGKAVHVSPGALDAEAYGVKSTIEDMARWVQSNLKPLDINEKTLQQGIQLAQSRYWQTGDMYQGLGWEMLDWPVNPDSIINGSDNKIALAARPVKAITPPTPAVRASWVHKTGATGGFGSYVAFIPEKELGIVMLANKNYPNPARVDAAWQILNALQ
row,Structure (SMILES),Potency
1,Cc1cc(NC(=O)c2ccoc2C)no1,"inconclusive [inhibitor, partial curve, poor fit]"
2,CCc1cccc(NC(=S)N(CCCN2CCOCC2)C(C)c2cc3cccc(OC)c3o2)c1 (stereo not given),"inconclusive [inhibitor, single point]"
3,COc1ccc2nc(N(CCN(C)C)C(=O)/C=C/c3cccs3)sc2c1,inactive
4,COc1ccc(NC(=O)c2sc3ncn(CC(=O)N4CCCCC4)c(=O)c3c2C)cc1OC,"inconclusive [inhibitor, partial curve]"
5,Fc1ccc(COc2cccc3cccnc23)cc1,inactive
6,Cc1ccccc1NC(=O)c1ccccc1O,inactive
7,CCOC(=O)Cc1csc(Nc2c(C)n(C)n(-c3ccccc3)c2=O)n1,"inconclusive [inhibitor, full curve, poor fit]"
8,CCCN(CC(=O)Nc1ccc(Cl)cc1Cl)C(=O)c1ccc(=O)[nH]c1,"inconclusive [inhibitor, partial curve]"
9,O=C(CCN1C(=O)[C@@H]2Cc3ccccc3CN2C1=O)N[C@@H](Cc1ccccc1)C(=O)O,"inconclusive [inhibitor, partial curve, poor fit]"
10,O=c1nc2n(c3ccc(Br)cc13)CCS2,"inconclusive [inhibitor, partial curve]"
11,NNC(=O)c1csc(Cc2c(Cl)sc3ccc(Cl)cc23)n1,inactive
12,CN(C1CCCC1)C1CCN(C(=O)CNC(=O)/C=C/c2cccc(C(F)(F)F)c2)CC1,"inconclusive [inhibitor, single point]"
13,COc1ccc(C(=O)/C=C/c2ccc(N3CCCCC3)c([N+](=O)[O-])c2)cc1,inactive
14,CCOc1ccc2[nH]c(=O)c(CN(C(=O)N3CCOCC3)C3CC3)cc2c1,"inconclusive [inhibitor, full curve, poor fit]"
15,O=C(COc1ccc(Cl)cc1)Nc1cc(-c2ccccc2)no1,inactive
16,C[C@@H]1CC[C@@]2(O[C@H](CCO)C[C@@H](O)[C@@H]2O)O1,"inconclusive [inhibitor, full curve, poor fit]"
17,CN(C)c1ccc(C2C3C(=O)N(c4ccc(C(=O)O)cc4)C(=O)C3ON2c2ccccc2)cc1 (stereo not given),inactive
18,Cc1ccc(Cn2c(N)nc3ccccc32)cc1,"inconclusive [inhibitor, partial curve, poor fit]"
19,CCOc1ccc(OCCC(=O)OCC(=O)NNC(=O)c2ccccc2)cc1,inactive
20,CCn1c(CN2CCN(c3cccc(Cl)c3)CC2)nc2c1c(=O)[nH]c(=O)n2C,inactive
21,O=C(c1n[nH]c(=O)c2ccccc12)N1CCN(S(=O)(=O)c2ccccc2Cl)CC1,inactive
22,CCc1ccc(-c2nc(CSCC(=O)NCCCN3CCCC3=O)c(C)o2)cc1,"inconclusive [inhibitor, partial curve]"
23,O=c1c(-c2ccccc2)coc2cc(O)ccc12,"inconclusive [inhibitor, single point]"
24,Cc1oncc1-c1csc(-c2ccccc2)n1,"inconclusive [inhibitor, full curve, poor fit]"

row,Structure (SMILES),Potency
1,CC1CCc2nc(NC(=O)CSc3nc4ccccc4o3)sc2C1 (stereo not given),"inconclusive [inhibitor, full curve, poor fit]"
2,COc1ccc(-n2c(C)cc(/C=C/c3nc(O)c([N+](=O)[O-])c(=O)[nH]3)c2C)cc1,"inconclusive [inhibitor, single point]"
3,Cc1cc(NCCCN)nc(-c2ccccc2O)n1,inactive
4,O=C(Nc1ccc(C(=O)N2CCOCC2)cc1)c1cc(-c2cccnc2)nc2ccc(Cl)cc12,inactive
5,CCOc1ccc(NC(=O)c2nn(C)c(C(=O)Nc3ccc(OCC)cc3)c2[N+](=O)[O-])cc1,"inconclusive [inhibitor, full curve, poor fit]"
6,O=C(NCC1CCCO1)c1cc2nc(-c3ccco3)cc(C(F)(F)Cl)n2n1 (stereo not given),"inconclusive [inhibitor, full curve, poor fit]"
7,O=C(Nc1ccn(-c2ccccc2)n1)c1ccc(S(=O)(=O)N2CCCCCC2)cc1,"inconclusive [inhibitor, full curve, poor fit]"
8,CS(=O)(=O)N(Cc1ccccc1)c1ccc(C(=O)NCc2ccccc2)cc1,"inconclusive [inhibitor, full curve, poor fit]"
9,Cc1cccc2cc(CN(CCCN3CCOCC3)Cc3nnnn3C(C)(C)C)c(=O)[nH]c12,"inconclusive [inhibitor, single point]"
10,O=C(CCc1nc(-c2ccccc2F)no1)Nc1cccc(C(F)(F)F)c1,inactive
11,Cc1ccc(C)c(N2CCN(C(=O)c3cccc(-n4c(C)nc5cccnc54)c3)CC2)c1,inactive
12,CCOc1cc(/C=N/NC(=S)Nc2ccccc2C(F)(F)F)ccc1OCC(=O)N1CCOCC1,"inconclusive [inhibitor, full curve, poor fit]"
13,Cc1cccn2c(=O)c3cc(C(=O)N4CCCC(C)C4)sc3nc12 (stereo not given),"inconclusive [inhibitor, full curve]"
14,O=C(CN1C(=O)c2ccccc2S1(=O)=O)c1ccc(OC(F)F)cc1,inactive
15,Cc1ccc(S(=O)(=O)Nc2cc(C(=O)N3CCOCC3)ccc2N2CCCCC2)cc1,"inconclusive [inhibitor, full curve, poor fit]"
16,O=C(CCNC(=O)c1ccc([N+](=O)[O-])cc1)NCc1ccco1,"inconclusive [inhibitor, full curve, poor fit]"
17,[O-]/[N+](=C\c1ccncc1)c1ccccc1,"inconclusive [inhibitor, full curve, poor fit]"
18,CCN(CCCNc1ncnc2nc[nH]c12)c1cccc(C)c1,"inconclusive [inhibitor, full curve, poor fit]"
19,O=C(NC1CCCCC1)c1ccc(Cn2c(SCc3cccc(F)c3)nc3cccnc32)cc1,inactive
20,CCCCCC(=O)NN=C1CCN(Cc2ccccc2)CC1,"inconclusive [inhibitor, partial curve]"
21,CC(=O)OCC1OC(Sc2cccc3cccnc23)C(OC(C)=O)C(OC(C)=O)C1OC(C)=O (stereo not given),"inconclusive [inhibitor, partial curve]"
22,CCCCn1c(N)c(N(CCC(C)C)C(=O)c2ccc(C)c(S(=O)(=O)N3CCOCC3)c2)c(=O)[nH]c1=O,"inconclusive [inhibitor, full curve, poor fit]"
23,CCCCn1nnnc1SCC(=O)NCc1ccccc1,"inconclusive [inhibitor, full curve]"
24,O=c1[nH]c2ccc(N=Cc3c(O)ccc4cc(Br)ccc34)cc2[nH]1,inactive

row,Structure (SMILES),Potency
1,NC(=O)CN1CCN(C(=O)Nc2ccccc2)CC1,inactive
2,CNS(=O)(=O)c1cn(CC(=O)Nc2ccc(F)cc2F)cc1S(=O)(=O)NC,inactive
3,CC(=O)OCC1OC(n2ncc(=O)n(Cc3ccccc3)c2=O)C(OC(C)=O)C1OC(C)=O (stereo not given),inactive
4,C=CCNC(=O)Cc1ccc(S(=O)(=O)N2CCOCC2)s1,"inconclusive [inhibitor, full curve]"
5,CCCCNc1sc(S(=O)(=O)CC)nc1S(=O)(=O)c1ccc(C)cc1,inactive
6,CC1CN(C(=O)COC(=O)c2ccc(F)cc2Cl)CC(C)O1 (stereo not given),"inconclusive [inhibitor, partial curve, poor fit]"
7,Cc1ccc2nc(Cl)c(C3CC(c4cccs4)=NN3C(=O)CCCC(=O)O)cc2c1 (stereo not given),"inconclusive [inhibitor, partial curve, poor fit]"
8,COc1cc(O)cc(O)c1C(=O)/C=C/c1ccccc1,inactive
9,C=CCOc1nc2c(c(=O)n(C)c(=O)n2C)n1Cc1ccccc1Cl,"inconclusive [inhibitor, full curve, poor fit]"
10,Cc1ccc(S(=O)(=O)NCC(=O)N2CCC(C)CC2)cc1,"inconclusive [inhibitor, full curve]"
11,COCCN1C(=O)N[C@@H](c2ccco2)C(C(C)=O)=C1C,"inconclusive [inhibitor, full curve]"
12,Cc1ccc(OCc2nnc(NC(=O)c3ccco3)s2)cc1,"inconclusive [inhibitor, single point]"
13,Cc1cccc(C)c1OCC(O)CN (stereo not given),"inconclusive [inhibitor, full curve]"
14,CCOCCCN(C(=O)Nc1ccc(CC)cc1)C1CCN(C(C)=O)CC1,"inconclusive [inhibitor, full curve, poor fit]"
15,CSc1ccccc1C(=O)NC1CCSc2ccccc21 (stereo not given),"inconclusive [inhibitor, partial curve, poor fit]"
16,Cc1ccc(Sc2c(O)c3ccccc3n(C)c2=O)cc1,"inconclusive [inhibitor, full curve]"
17,Cc1ccc(-c2c(CN3CCN(c4cc(Cl)ccc4C)CC3)csc2C)cc1,inactive
18,Cc1ccc(NC(=O)c2ccc3c(c2)CCN3S(C)(=O)=O)cc1C,inactive
19,O=C1c2ccccc2C(=O)N1C/C=C/c1ccccc1,"inconclusive [inhibitor, full curve]"
20,CCn1c(C)cs/c1=N\C(=S)Nc1ccccc1C,"inconclusive [inhibitor, full curve, poor fit]"
21,Cc1c(Cl)cccc1NC(=O)CN1C(=O)c2ccccc2Sc2ncccc21,inactive
22,C/C(=N\Nc1nncc2ccccc12)c1cccc(OC(F)F)c1,inactive
